Source: patent publication US11000038B2, “Pyridone compounds and agricultural and horticultural fungicides containing the same as active ingredients” (priority 2017, dated 2021)

Tests used:
[1] = test system: rice blast fungi (Magnaporthe grisea); format: in vivo; conditions: rice blast, spray treatment
[2] = test system: cucumber anthracnose fungi (Colletotrichum orbiculare); assay: Test Example H: cucumber anthracnose, spray treatment of cucumber plants; conditions: cucumber anthracnose, 250 ppm spray, 6 to 10 days after inoculation
[3] = test system: tomato late blight fungi (Phytophthora infestans); format: in vivo; conditions: tomato late blight, spray treatment

| SMILES | Test A control value [1] | Test H control value [2] | Test F control value [3] |
| --- | --- | --- | --- |
| Cc1cc(F)ccc1-c1c(C)c(=O)c(C)cn1-c1ccccc1 [Compound 571] | H (H shows the control value of more than 50%) | H (H shows the control value of more than 50%) | L (L shows the control value of 50% or less) |
| CCc1c(-c2ccccc2)n(-c2cccc(Br)c2C)cc(Br)c1=O [Compound 572] | L (L shows the control value of 50% or less) | L (L shows the control value of 50% or less) | L (L shows the control value of 50% or less) |
| CCc1c(-c2ccccc2)n(-c2cc(F)ccc2C)cc(C)c1=O [Compound 573] | H (H shows the control value of more than 50%) | L (L shows the control value of 50% or less) | L (L shows the control value of 50% or less) |
| O=c1c(Br)cn(-c2ccccc2)c(-c2ccccc2Cl)c1Cl [Compound 574] | H (H shows the control value of more than 50%) | H (H shows the control value of more than 50%) | L (L shows the control value of 50% or less) |
| Cc1cn(-c2ccccc2)c(-c2ccccc2Cl)c(C)c1=O [Compound 575] | H (H shows the control value of more than 50%) | H (H shows the control value of more than 50%) | L (L shows the control value of 50% or less) |
| O=c1c(Br)cn(-c2ccccc2)c(-c2ccccc2Br)c1Cl [Compound 576] | L (L shows the control value of 50% or less) | H (H shows the control value of more than 50%) | L (L shows the control value of 50% or less) |
| Cc1cn(-c2ccccc2)c(-c2ccccc2Br)c(C)c1=O [Compound 578] | L (L shows the control value of 50% or less) | H (H shows the control value of more than 50%) | L (L shows the control value of 50% or less) |
| Cc1ccccc1-c1c(Cl)c(=O)c(Br)cn1-c1ccccc1 [Compound 579] | H (H shows the control value of more than 50%) | L (L shows the control value of 50% or less) | L (L shows the control value of 50% or less) |
| Cc1ccccc1-c1c(C)c(=O)c(C)cn1-c1ccccc1 [Compound 580] | H (H shows the control value of more than 50%) | H (H shows the control value of more than 50%) | L (L shows the control value of 50% or less) |
| Cc1cn(-c2ccccc2)c(-c2ccccc2C(F)(F)F)c(C)c1=O [Compound 581] | L (L shows the control value of 50% or less) | H (H shows the control value of more than 50%) | L (L shows the control value of 50% or less) |
| COc1ccccc1-c1c(C)c(=O)c(C)cn1-c1ccccc1 [Compound 582] | L (L shows the control value of 50% or less) | L (L shows the control value of 50% or less) | L (L shows the control value of 50% or less) |
| Cc1cc(F)ccc1-c1c(Cl)c(=O)c(Br)cn1-c1ccccc1 [Compound 583] | L (L shows the control value of 50% or less) | H (H shows the control value of more than 50%) | L (L shows the control value of 50% or less) |
| Cc1cc(F)ccc1-c1c(Br)c(=O)c(Br)cn1-c1ccccc1 [Compound 584] | H (H shows the control value of more than 50%) | H (H shows the control value of more than 50%) | L (L shows the control value of 50% or less) |
| Cc1cn(-c2ccccc2)c(-c2ccc(F)cc2Br)c(C)c1=O [Compound 585] | L (L shows the control value of 50% or less) | H (H shows the control value of more than 50%) | L (L shows the control value of 50% or less) |
